According to PubChem BioAssay AID1460 (National Center for Advancing Translational Sciences (NCATS), 2008):
Hit rate of the full screen: of about 270,000 compounds, about 5,800 (2.1%) were called active. Inconclusive means that the source gave no clear call. Such entries were picked first, then a sample of the others. The call rests on the fitted dose curve; in most records, active means well fitted inhibition curve with a large enough effect; inconclusive means small, poorly fitted or top-dose-only effect; inactive means flat fitted curve, though single readings scatter. Where the call is inconclusive, the potency comes from a doubtful curve fit.

Each compound was assayed against Microtubule-associated protein tau (Homo sapiens) (UniProt P10636) (assay: qHTS for Inhibitors of Tau Fibril Formation, Thioflavin T Binding). Details: recombinant tau K18 P301L (four-repeat tau fragment), heparin-induced fibrillization, ThT fluorescence; series mostly up to 57.4 µM.
Procedure, shortened: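 In this qHTS, human K18 P301L tau is incubated with compound and heparin for 6 hr at 37 C, and Thioflavin T fluorescence then reports fibril load.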
Further: nearly all actives have a fitted effect of over 55% in size.
Potency means the concentration at half of the fitted maximal effect; tags describe the fitted curve by direction and shape.

Sequence of UniProt P10636 (P10636 whole entry, looked up, the tested form may be a part): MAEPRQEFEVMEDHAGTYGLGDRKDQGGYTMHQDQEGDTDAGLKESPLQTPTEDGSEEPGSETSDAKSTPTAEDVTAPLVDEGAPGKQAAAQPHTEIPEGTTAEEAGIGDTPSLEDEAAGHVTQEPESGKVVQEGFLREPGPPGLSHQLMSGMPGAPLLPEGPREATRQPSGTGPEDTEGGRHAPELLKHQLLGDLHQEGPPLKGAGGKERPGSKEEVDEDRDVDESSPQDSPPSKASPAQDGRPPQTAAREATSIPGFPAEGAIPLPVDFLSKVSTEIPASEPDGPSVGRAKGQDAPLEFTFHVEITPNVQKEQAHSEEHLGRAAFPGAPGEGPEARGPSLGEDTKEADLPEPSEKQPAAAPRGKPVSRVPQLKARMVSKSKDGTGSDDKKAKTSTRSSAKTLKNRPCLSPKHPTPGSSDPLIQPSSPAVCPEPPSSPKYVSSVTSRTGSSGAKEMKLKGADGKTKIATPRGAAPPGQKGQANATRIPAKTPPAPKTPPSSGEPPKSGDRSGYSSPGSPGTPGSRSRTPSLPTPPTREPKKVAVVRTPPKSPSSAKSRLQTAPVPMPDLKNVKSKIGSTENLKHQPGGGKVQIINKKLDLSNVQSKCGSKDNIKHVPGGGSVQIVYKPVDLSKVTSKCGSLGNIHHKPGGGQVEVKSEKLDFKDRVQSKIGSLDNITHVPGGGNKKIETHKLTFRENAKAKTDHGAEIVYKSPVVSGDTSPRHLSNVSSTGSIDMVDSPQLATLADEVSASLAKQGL

SMILES | Potency
CNC(=O)c1c(NC(=O)Cc2coc3ccc(OC)cc23)sc2c1CCCC2 | inconclusive: 31.6 µM [inhibitor, single point]
CCCN1C(=O)/C(=C2/C=Cc3ccccc3N2CC)SC1=S | inconclusive: 2.51 µM [inhibitor, full curve]
CCc1cccc(C)c1NC(=O)CCS(=O)(=O)c1ccc2c(c1)oc(=O)n2C | inactive
Cc1cccc(Nc2nc(-c3ccncc3)cs2)c1 | inconclusive: 12.6 µM [inhibitor, partial curve]
CC(C)Oc1cccc(C(=O)NC(=S)Nc2cccc(NC(=O)c3ccccc3Cl)c2)c1 | inactive
CCOC(=O)N1CCN(c2ccc([N+](=O)[O-])cc2)CC1 | active: 3.98 µM
Clc1ccc(CSc2nnc3c(n2)[nH]c2ccccc23)cc1 | inconclusive: 12.6 µM [inhibitor, partial curve, poor fit]
COC(=O)C1=C(C)N(c2cc(C)cc(C)c2)/C(=C/c2ccc(O)cc2)C1=O | active: 31.6 µM
COc1ccc(-c2noc(CSc3nc4ccccc4[nH]3)n2)cc1 | inactive
Cc1ccc(Nc2c(-c3ccc(C)cc3)nc3c(C)cccn23)cc1 | inconclusive: 7.08 µM [inhibitor, partial curve]
CSc1ccccc1NC(=O)C(=O)c1c[nH]c2ccccc12 | inactive
C=CC(C1=CC(=O)C(OC)=CC1=O)c1ccc(O)cc1 (stereo not drawn) | active: 31.6 µM
COC(=O)c1cc2sc(C)cc2n1Cc1nc(-c2ccc(C)cc2)oc1C | inconclusive: 20 µM [inhibitor, single point]
CC(C)CC1=C/C(=C/c2ccc(-c3ccccc3)o2)C(=O)O1 | inconclusive: 15.8 µM [inhibitor, partial curve]
COc1ccc(S(=O)(=O)N(Cc2cccs2)C2CCCC2)cc1 | inactive
CC(=O)NCCc1ccc(O)c(O)c1 | inconclusive: 14.1 µM [inhibitor, partial curve]
O=C(CCCCCNC(=O)c1ccccc1Br)N=Nc1c(O)[nH]c2ccccc12 | inconclusive: 17.8 µM [inhibitor, partial curve]
CC1=CC2C(=O)c3cccc(O)c3C(=O)C2C(O)=C1 (stereo not drawn) | inconclusive: 8.91 µM [inhibitor, partial curve]
COc1ccc(N=c2oc3cc(O)ccc3cc2C(=O)NCC2CCCO2)c(OC)c1 (stereo not drawn) | inconclusive: 35.5 µM [inhibitor, single point]
COc1ccc(NC(=O)c2ccc3nccnc3c2)cc1 | inconclusive: 15.8 µM [inhibitor, partial curve]
Cc1ccc(C(NC(=O)C(C)C)c2cc([N+](=O)[O-])c3cccnc3c2O)cc1 (stereo not drawn) | inconclusive: 20 µM [inhibitor, partial curve]
COc1ccc(Cl)cc1NC(=O)CN1C(=O)C(C)(C)c2cc(S(=O)(=O)N3CCCCC3)ccc21 | inconclusive: 0.631 µM [activator, partial curve, poor fit]

SMILES | Potency
Cc1ccc2nc(Cl)c3cc(C(=O)N4CCCCC4C)sc3c2c1 (stereo not drawn) | inconclusive: 35.5 µM [inhibitor, single point]
Cc1ccccc1Nc1nn2c(=O)c3ccc(C(=O)NCCc4ccc(Cl)cc4)cc3nc2s1 | inconclusive: 0.178 µM [inhibitor, full curve]
COc1ccc(NC(=O)c2ccc(NCCCN3CCOCC3)c([N+](=O)[O-])c2)cc1 | active: 15.8 µM
COc1cc2c3c(c1)-c1c(sn(-c4cc(OC)ccc4OC)c1=S)C(C)(C)N3C(=O)C2=O | inconclusive: 8.91 µM [inhibitor, partial curve]
N/C(=N\OC(=O)c1ccc2c(c1)OCO2)c1cccc([N+](=O)[O-])c1 | inconclusive: 15.8 µM [inhibitor, partial curve]
O=C(Cn1c(=O)nc(-c2ccccc2)c2cc(Cl)ccc21)N1CCN(c2ccccc2F)CC1 | inconclusive: 39.8 µM [inhibitor, single point]
CCOC(=O)N1CCN(C(=O)CSCC(=O)N=c2sc3ccccc3n2C)CC1 | inconclusive: 2.82 µM [inhibitor, partial curve]
Cc1c(C(=O)OCC(=O)c2ccc3c(c2)OCCO3)oc2ccccc12 | inconclusive: 3.16 µM [inhibitor, partial curve]
O=C(Nc1nc(-c2cccs2)cs1)C1=COCCO1 | inconclusive: 28.2 µM [inhibitor, partial curve]
Cc1cc(-c2[nH]nc3c2C(c2ccc(Cl)cc2)C(C#N)=C(N)O3)c(C)s1 (stereo not drawn) | inconclusive: 28.2 µM [inhibitor, partial curve]
Cc1ccc(S(=O)(=O)Nc2cc3c(cc2NCc2ccccc2)n(C)c(=O)n3C)cc1 | inconclusive: 28.2 µM [inhibitor, partial curve]
CCc1nnc(SCC(=O)Nc2ccc(N3CCOCC3)cc2)o1 | inconclusive: 4.47 µM [inhibitor, partial curve]
C=CCNC(=S)N1CCN(c2ncc(C(F)(F)F)cc2Cl)CC1 | inconclusive: 2.82 µM [inhibitor, partial curve, poor fit]
O=C(CSc1ncc(-c2ccccc2)[nH]1)Nc1ccc(Cl)cc1 | inactive
O=C(COc1ccc2ccc(=O)oc2c1)Nc1ccc2c(c1)OCCO2 | inconclusive: 14.1 µM [inhibitor, partial curve]
O=C(N/N=C/c1ccc(O)c([N+](=O)[O-])c1)C1CC1(c1ccccc1)c1ccccc1 (stereo not drawn) | active: 14.1 µM
O=C1S/C(=C\c2ccc(N3CCOCC3)o2)C(=O)N1Cc1ccc(F)cc1 | inactive
O=C(NCCN1CCN(c2cccc(Cl)c2)CC1)Nc1ccccc1C(F)(F)F | inconclusive: 2.24 µM [inhibitor, partial curve]
CCOc1ccc(CCNC(=O)Cn2nnc(-c3ccccc3Cl)n2)cc1OCC | inactive
c1ccc(CCn2c(SCc3ccccc3)nnc2-c2ccncc2)cc1 | inactive
O=C(CCCn1c(=O)c2cccn2c2cccnc21)NCc1ccccc1Br | inconclusive: 0.126 µM [inhibitor, full curve, poor fit]
